Source: PubChem BioAssay AID1347428 (National Center for Advancing Translational Sciences (NCATS), 2020)
Screen size: about 91,000 compounds; about 290 (0.32%) were called active. This list was built around the results that the source calls inconclusive (neither active nor inactive); the mix of calls is not that of the screen. Calls come from the whole dose curve; as a rule, active = well fitted inhibition curve with a large enough effect; inconclusive = small, poorly fitted or top-dose-only effect; inactive = no such curve, though single readings can be large or run the other way. Potencies beside an inconclusive call are fits to weak or partial responses and may not hold up.

The compounds below were run against Single-stranded DNA cytosine deaminase (Homo sapiens) (UniProt Q9GZX7) (assay: Primary qHTS assay for inhibitors of Activation Induced Cytidine Deaminase (AID): AID signal). Conditions: AID deamination FRET fluorescence, UDG-coupled, 4 h; series mostly up to 115 µM.
Note: nearly all actives have a fitted effect of over 25% in size.
Potency is the fitted concentration of half-maximal effect; tags give direction and shape of the fitted curve.

Chain of UniProt Q9GZX7 (Q9GZX7 whole entry, looked up): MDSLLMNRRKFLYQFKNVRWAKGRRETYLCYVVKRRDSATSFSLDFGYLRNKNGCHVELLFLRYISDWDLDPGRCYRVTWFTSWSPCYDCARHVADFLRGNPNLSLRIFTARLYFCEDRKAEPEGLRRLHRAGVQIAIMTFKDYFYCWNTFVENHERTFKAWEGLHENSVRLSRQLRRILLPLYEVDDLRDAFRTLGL

| Compound | Potency |
| --- | --- |
| CC(NC(=O)c1sc2ncccc2c1-n1cccc1)c1ccccc1 (centres undefined) | inconclusive: 50.1 µM [inhibitor, partial curve, poor fit] |
| CCN(CC)C(=O)C1CCCN(c2ncnc3onc(C)c23)C1 (centres undefined) | inconclusive: 25.1 µM [inhibitor, full curve] |
| Cc1ccc(Cl)cc1N(C)C(=O)c1cnc(N2CCOCC2)c2ccccc12 | inactive |
| COc1ccc(NC(=O)N2CCc3c([nH]c4ccc(OC)cc34)C2c2ccc(OC)cc2)cc1 (centres undefined) | inconclusive: 39.8 µM [inhibitor, single point] |
| Cc1ccc(C)c(NC(=O)C(Cc2ccccc2)N2Cc3ccccc3C2=O)c1 (centres undefined) | inconclusive: 79.4 µM [inhibitor, single point] |
| CSc1cccc(Nc2cc(C(=O)NCCCN(Cc3ccccc3)C(C)C)c3ccccc3n2)c1 | inactive |
| COc1ccc(NC(=O)C2CCC2)c2cccnc12 | inactive |
| CC1=Nc2cc(C(=O)NC3CCCC3)ccc2Sc2ccc(Br)cc21 | inconclusive: 22.4 µM [inhibitor, partial curve, poor fit] |
| CCc1ccccc1N(CC)C(=O)C(=O)Nc1ccc2nc3n(c(=O)c2c1)CCCCC3 | inconclusive: 28.2 µM [inhibitor, partial curve, poor fit] |
| Cc1ccc(C(=O)N2CCN(c3cccc(Cl)c3)CC2)cc1-n1c(C)nc2cccnc21 | inconclusive: 50.1 µM [inhibitor, partial curve, poor fit] |
| COc1ccc(S(=O)(=O)c2cc3cc(C(C)(C)C)cc(O)c3oc2=O)cc1 | inconclusive: 50.1 µM [inhibitor, partial curve, poor fit] |
| Cc1cc(C)n2c(Nc3ccc4c(c3)OCCO4)c(-c3ccccc3)nc2n1 | inconclusive: 44.7 µM [inhibitor, partial curve, poor fit] |
| CCOc1ccc2c(c1)c(=O)c(C(=O)c1ccccc1)cn2Cc1ccccc1F | inconclusive: 22.4 µM [inhibitor, single point] |
| COc1cc2ccccc2cc1C(=O)N1CCN(c2nc3c(F)cccc3s2)CC1 | inconclusive: 112 µM [inhibitor, partial curve, poor fit] |
| Cc1ccc(-c2nc(CS(=O)(=O)CC(=O)NC(C)CCc3ccccc3)c(C)o2)cc1 (centres undefined) | inconclusive: 14.1 µM [inhibitor, full curve, poor fit] |
| CCOc1ccc(N2CC(c3nc4ccccc4n3CCOc3ccc(OC)cc3)CC2=O)cc1 (centres undefined) | inconclusive: 17.8 µM [inhibitor, full curve, poor fit] |
| COc1ccc(-c2nc3sc(CCNC(=O)C(C)(C)C)c(C)n3n2)cc1 | inconclusive: 11.2 µM [inhibitor, partial curve, poor fit] |
| Cc1ccc(OC(=O)CSc2nnc(-c3ccc4c(c3)OCO4)o2)c(C)c1 | inconclusive: 12.6 µM [inhibitor, partial curve, poor fit] |
| CCOC(=O)c1cnc(NCc2ccc(OC)cc2OC)c2ccccc12 | inconclusive: 39.8 µM [inhibitor, partial curve, poor fit] |
| CCOc1ccccc1NC(=O)N1CC(C)Oc2ccc(Cl)cc21 (centres undefined) | inconclusive: 79.4 µM [inhibitor, partial curve, poor fit] |

| Compound | Potency |
| --- | --- |
| Cc1ccc(C(=O)c2sc(Nc3ccc(F)cc3)c(C#N)c2N)cc1 | inactive |
| COC(=O)C1=C(C)NC(C)=C(C(=O)OC(C)(C)CN(C)CCC(c2ccccc2)c2ccccc2)C1c1cccc([N+](=O)[O-])c1 (centres undefined) | inconclusive: 25.1 µM [inhibitor, partial curve, poor fit] |
| Cc1cc(C)c2oc(C(=O)NCCc3ccc(S(N)(=O)=O)cc3)cc(=O)c2c1 | inconclusive: 79.4 µM [inhibitor, single point] |
| CC(=O)c1cc2c(cc1NC(=O)CSc1nnc(C3CC3)n1C1CC1)OCO2 | inactive |
| COc1ccccc1NC(=O)C(=O)c1cc(C)n(-c2cc(C)cc(C)c2)c1C | inconclusive: 28.2 µM [inhibitor, full curve] |
| CC(C)CCNC(=O)CC(c1ccc(F)cc1)N1Cc2ccccc2C1=O (centres undefined) | inactive |
| CCOc1ccc(OCc2nc3ccccc3[nH]2)cc1 | inactive |
| COc1ccccc1Nc1nn2c(=O)c3ccc(C(=O)NCc4cccs4)cc3nc2s1 | inactive |
| Cc1cc(C)c(S(=O)(=O)N2CCC(n3c(CC(C)C)nc4cccnc43)CC2)c(C)c1 | inconclusive: 56.2 µM [inhibitor, partial curve, poor fit] |
| Cc1cccc(CN2C(=O)c3ccccc3Sc3ccc(C(=O)N4CCCC4)cc32)c1 | inconclusive: 2.82 µM [inhibitor, full curve, poor fit] |
| Nc1nccnc1C(=O)NCc1ccc(OC(F)F)cc1 | inactive |
| Cc1ccc(-n2ncc(C(=O)NC3CCCC3)c2C2CCN(C(=O)OC(C)(C)C)CC2)c(C)c1 | inconclusive: 31.6 µM [inhibitor, partial curve, poor fit] |
| O=C(Cn1cnc2ccccc2c1=O)Nc1ccc(Cl)c(S(=O)(=O)N2CCOCC2)c1 | inactive |
| C#CC(C)(CC)NC(=O)Cn1nnc(-c2ccc(OCc3ccccc3F)cc2)n1 (centres undefined) | inactive |
| Cc1ccc(NC(=O)CS(=O)(=O)c2nc(-c3ccc(C)cc3)cn2-c2ccc(C)cc2)cc1 | inconclusive: 8.91 µM [inhibitor, full curve, poor fit] |
| CCOc1ccccc1NC(=O)CN1C(=O)CC(c2ccco2)Sc2ccccc21 (centres undefined) | inconclusive: 15.8 µM [inhibitor, full curve, poor fit] |
| Cc1cc(NC(=O)CCCn2c(C)c3cnn(-c4ccccc4)c(=O)c3c2C)ccc1Br | inconclusive: 3.16 µM [inhibitor, full curve, poor fit] |
| Cc1cccc(N(CC(=O)Nc2ccc(Br)cc2)S(C)(=O)=O)c1C | inconclusive: 79.4 µM [inhibitor, partial curve, poor fit] |
| CC(C)c1ccc(S(=O)(=O)c2nnn3c2nc(NC2CCCC2)c2sccc23)cc1 | inconclusive: 12.6 µM [inhibitor, full curve, poor fit] |
